Laboratory results taken from the supplement of paper PMC12645437, “Orthogonal IMiD-Degron Pairs Induce Selective Protein Degradation in Cells” (ACS Chemical Biology, 2025).
The other results are listed elsewhere or left out.

B1: Q9UKT9 (peptide)
chain: FNCEICGAWFTQKGNLLRHIKL
B2: Q9UKT9 (peptide)
chain: FDCPQCGAMFTQKGNLLRHIKL
B3: Q9UKT9 (peptide)
chain: FCCNVCGARFTQKGNLLRHIKL
B4: Q9UKT9 (peptide)
chain: LVCEICGFNCTQKGNLLRHIKL
B5: Q9UKT9 (peptide)
chain: FDCEICGAEFTQKGNLLRHIKL
B6: Q9UKT9 (peptide)
chain: FECPVCGARFTQKGNLLRHIKL
B7: Q9UKT9 (peptide)
chain: FRCNVCGASFTQKGNLLRHIKL
B8: Q9UKT9 (peptide)
chain: FQCEICGAEFTQKGNLLRHIKL
B9: Q9UKT9 (peptide)
chain: FFCPICGRFFTQKGNLLRHIKL
B10: Q9UKT9 (peptide)
chain: FGCDQCGATFTQKGNLLRHIKL
B11: Q9UKT9 (peptide)
chain: FACNQCGAAFTQKGNLLRHIKL
B12: Q9UKT9 (peptide)
chain: FSCEVCGAIFTQKGNLLRHIKL
B13: Q9UKT9 (peptide)
chain: FVCEVCGADFTQKGNLLRHIKL
B14: Q9UKT9 (peptide)
chain: LKCNQCGFLCTQKGNLLRHIKL
B15: Q9UKT9 (peptide)
chain: FFCEICGREFTQKGNLLRHIKL
B16: Q9UKT9 (peptide)
chain: FSCPICGRYFTQKGNLLRHIKL
B17: Q9UKT9 (peptide)
chain: FVCNICGAEFTQKGNLLRHIKL
B18: Q9UKT9 (peptide)
chain: FMCDICGAIFTQKGNLLRHIKL
B19: Q9UKT9 (peptide)
chain: FECNQCGAEFTQKGNLLRHIKL
B20: Q9UKT9 (peptide)
chain: FRCEQCGAGFTQKGNLLRHIKL
B21: Q9UKT9 (peptide)
chain: FWCDICGAYFTQKGNLLRHIKL
B22: Q9UKT9 (peptide)
chain: FDCPICGHEFTQKGNLLRHIKL
B23: Q9UKT9 (peptide)
chain: FFCEQCGAYFTQKGNLLRHIKL
B24: Q9UKT9 (peptide)
chain: FTCSVCGHLFTQKGNLLRHIKL
B25: Q9UKT9 (peptide)
chain: FDCEQCGAPFTQKGNLLRHIKL
B26: Q9UKT9 (peptide)
chain: FICSVCGHVFTQKGNLLRHIKL
B27: Q9UKT9 (peptide)
chain: FACEQCGASFTQKGNLLRHIKL
B28: Q9UKT9 (peptide)
chain: FCCEQCGAAFTQKGNLLRHIKL
B29: Q9UKT9 (peptide)
chain: FCCNQCGHKFTQKGNLLRHIKL
B30: Q9UKT9 (peptide)
chain: FRCEICGRWFTQKGNLLRHIKL
B31: Q9UKT9 (peptide)
chain: FYCNQCGRPFTQKGNLLRHIKL
B32: Q9UKT9 (peptide)
chain: FVCNQCGRNFTQKGNLLRHIKL

Biological target: no compound (DMSO)
Test: log2 fold change of degron read counts, EGFP-low vs EGFP+ sorted cells; higher = lower degron-EGFP level without compound (poor expression or instability)
Conditions: compound: DMSO control; 18 h
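Also: jurkat cells carrying a lentiviral library of mutant zinc finger degrons fused to EGFP plus mCherry, mCherry+ cells FACS sorted, degron abundance counted by next-generation sequencing.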

Sequence	log2 fold change of degron read counts
B1	-1.62
B2	-1.6
B3	-0.342
B4	-0.295
B5	-1.09
B6	-0.519
B7	-1.05
B8	-1.32
B9	0.318
B10	-2.16
B11	-1.06
B12	-1.88
B13	-2.64
B14	0.378
B15	-1.78
B16	0.411

Sequence	log2 fold change of degron read counts
B17	-2.32
B18	-0.865
B19	-1.45
B20	-1.63
B21	0.55
B22	-1.31
B23	-0.51
B24	-0.281
B25	-2.95
B26	-0.228
B27	-2.63
B28	-1.22
B29	0.111
B30	-0.164
B31	0.465
B32	-0.37
